{"source": "PubChem BioAssay AID1347417", "about": "(National Center for Advancing Translational Sciences (NCATS), 2020)", "note": "Screen size: about 120,000 compounds; about 5,300 (4.4%) were called active. The shares of active, inactive and inconclusive entries below differ from those in the screen. Calls come from the whole dose curve; as a rule, active = well fitted inhibition curve with a large enough effect; inconclusive = small, poorly fitted or top-dose-only effect; inactive = no such curve, though single readings can be large or run the other way. Potencies beside an inconclusive call are fits to weak or partial responses and may not hold up. Potency is the fitted concentration of half-maximal effect; tags give direction and shape of the fitted curve."}
{"experiment": "qHTS Primary assay for Inhibitors of Plasmodium falciparum Dd2 growth in vitro; note: nearly all actives have a fitted effect of over 65% in size;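 for activity, negative = inhibition: plate controls were DMSO vehicle for no effect and reference drug for full effect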", "conditions": "P. falciparum Dd2 growth, SYBR Green, 72 h; activity, negative = inhibition: at 28.9 µM (top of the series) unless noted; series mostly up to 28.9 µM", "outline": "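Infected erythrocytes (Dd2, 0.3% parasitemia, 2.5% hematocrit final) are added to compound in RPMI-1640/Albumax II medium, grown 72 h at 37C in low oxygen, then lysed with saponin/Triton-X containing SYBR Green and read by fluorescence.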"}
{"smiles": "CC(C)(C)c1ccc(-c2cc(C[C@H]3CNCC[C@H]3CC(=O)NCc3cccnc3)no2)cc1", "Potency": "inconclusive: 1.78 µM [inhibitor, full curve, poor fit]"}
{"smiles": "Cc1noc(C)c1CCC(=O)NC1CCc2nn(CC3CC3)c(=O)n2CC1", "note": "(configuration not stated)", "Potency": "inconclusive: 0.501 µM [inhibitor, full curve, poor fit]"}
{"smiles": "Cc1ccc(C(=O)NC(C(=O)N2CCCCC2)C2CCN(C(=O)C(C)C)CC2)cc1", "note": "(configuration not stated)", "Potency": "inconclusive: 0.398 µM [inhibitor, partial curve, poor fit]"}
{"smiles": "COc1ccccc1Nc1ncc2c(n1)CN(C(=O)c1ccccc1)CCN2", "Potency": "inconclusive: 3.16 µM [inhibitor, full curve, poor fit]"}
{"smiles": "CCN(Cc1ccccc1)C(=O)CN1C(=O)COc2ccc(S(=O)(=O)N3CCCCCC3)cc21", "Potency": "inconclusive: 11.2 µM [inhibitor, single point]"}
{"smiles": "CCOc1ccccc1NC(=O)Cn1c(-c2ccc(F)cc2)nc(C)cc1=O", "Potency": "inactive"}
{"smiles": "CCn1cc2nc(SCc3ccccc3F)n(Cc3ccc(C)cc3)c(=O)c2n1", "Potency": "inconclusive: 11.2 µM [inhibitor, single point]"}
{"smiles": "O=C(c1ccc2c(c1)OCO2)N1CCC2(CC1)CC(c1ccccc1)=NO2", "Potency": "inactive"}
{"smiles": "CC(C)C[C@@H]1N[C@H](C(=O)N2CCOCC2)Cc2cn(Cc3cccnc3)c3cccc1c23", "Potency": "inconclusive: 3.55 µM [inhibitor, partial curve, poor fit]"}
{"smiles": "CC1CCCCN1C(=O)c1ccc(CN2C(=O)NC3(CCS(=O)(=O)CC3)C2=O)cc1", "note": "(configuration not stated)", "Potency": "inconclusive: 17.8 µM [inhibitor, single point]"}
{"smiles": "Cc1ccc(C(=O)N[C@@H]2CN(c3ncccn3)C[C@H]2CO)cn1", "Potency": "inactive"}
{"smiles": "Cc1nc2c(c(-c3ccc(O)cc3)n1)CN(CCC(C)C)CCC2", "Potency": "inconclusive: 6.31 µM [inhibitor, full curve, poor fit]"}
{"smiles": "Cc1ccc(C)c(N2CCN(Cc3nnc(-c4ccccc4)o3)CC2)c1", "Potency": "inconclusive: 1 µM [inhibitor, single point]"}
{"smiles": "CC(C)(C)CNC1(Cc2cc(COc3ccccc3)on2)COC1", "Potency": "inconclusive: 17.8 µM [inhibitor, partial curve, poor fit]"}
{"smiles": "Cc1c(F)cccc1Nc1ncncc1-c1nc(-c2ccccc2)no1", "Potency": "inactive"}
{"smiles": "O=C(c1ccc[nH]c1=O)N1CCC(n2cc(-c3nc(-c4ccccc4)no3)nn2)CC1", "Potency": "inconclusive: 17.8 µM [inhibitor, single point]"}
{"smiles": "CC(NC(=O)C(=O)Nc1c2c(nn1-c1ccc(F)cc1)CSC2)c1ccccc1", "note": "(configuration not stated)", "Potency": "inconclusive: 12.6 µM [inhibitor, single point]"}
{"smiles": "CN1c2cc(C(=O)N3CCN(c4ccccc4F)CC3)ccc2C(=O)N2CCCC21", "note": "(configuration not stated)", "Potency": "inactive"}
{"smiles": "O=C(NC1CCCC1)c1cc(C2CC2)nc2onc(C3CCCN3)c12", "note": "(configuration not stated)", "Potency": "inconclusive: 22.4 µM [inhibitor, single point]"}
{"smiles": "CCOC(=O)c1c(-c2ccc(OC)cc2)oc2ccc(OCc3ccc(C(=O)OC)cc3)cc12", "Potency": "inconclusive: 10 µM [inhibitor, single point]"}
{"smiles": "CCN1CCN(CCCNC(=O)c2ccc3c(c2)sc2nc(-c4ccc(OC)cc4)cn23)CC1", "Potency": "active: 3.16 µM"}
{"smiles": "CCOC(=O)N1CCN(Cc2nc(-c3ccc(C)s3)oc2C)CC1", "Potency": "inactive"}
{"smiles": "Cc1cc(C)c(Cn2c(C(O)c3ccccc3)nc3ccccc32)c(C)c1", "note": "(configuration not stated)", "Potency": "active: 3.16 µM"}
{"smiles": "CCn1cc(S(=O)(=O)N2CCC(Cc3nncn3CC)C2)cn1", "note": "(configuration not stated)", "Potency": "inactive"}
{"smiles": "COc1ccc(-c2nnc(C[C@@H]3C[C@@H](C(C)C)[C@H](CN(C)CCC#N)C=C3C)o2)cc1", "Potency": "active: 7.94 µM"}
{"smiles": "O=C(CSc1nc2ccccc2n1Cc1ccccc1Cl)NCc1ccccc1", "Potency": "inconclusive: 12.6 µM [inhibitor, single point]"}
{"smiles": "CO[C@H]1C(=O)N(C2CCN(S(=O)(=O)c3ccc4c(c3)CCC4)CC2)[C@H]1c1ccncc1", "Potency": "inconclusive: 11.2 µM [inhibitor, partial curve, poor fit]"}
{"smiles": "CCCNC(=O)N1CCC(c2noc(-c3ccccn3)n2)C1", "note": "(configuration not stated)", "activity, negative = inhibition": "inactive: 11.2% [at 5.79 µM]"}
{"smiles": "CCCCN(C)CCNC(=O)c1nn(-c2ccc(OC)cc2)c(=O)c2c1c1ccccc1n2C", "Potency": "inconclusive: 12.6 µM [inhibitor, single point]"}
{"smiles": "CCC(=O)N1CCc2cc(Br)cc(S(=O)(=O)NCCc3ccccc3)c21", "Potency": "inactive"}
{"smiles": "O=C1NC(=NC2CCCCC2)C2(CCCN([S+](=O)([O-])c3ccccc3)C2)N1c1cc(F)cc(F)c1", "note": "(configuration not stated)", "Potency": "inconclusive: 20 µM [inhibitor, partial curve, poor fit]"}
{"smiles": "CCOC(=O)c1c(NC(=O)COc2ccc(F)cc2)sc2c1CCC(C)C2", "note": "(configuration not stated)", "Potency": "inconclusive: 1.12 µM [inhibitor, full curve, poor fit]"}
{"smiles": "COc1ccc(-c2nccc3c(=O)cc(N(C)C)oc23)cn1", "Potency": "inactive"}
{"smiles": "Fc1ccc(CNC[C@H]2Cn3c(-c4ccc5c(c4)OCCO5)cnc3CO2)cc1", "Potency": "inconclusive: 31.6 µM [inhibitor, single point]"}
{"smiles": "Cc1cn2nc(C(=O)N3CCC(NC(=O)C(C)c4ccccc4)CC3)cc2c(=O)[nH]1", "note": "(configuration not stated)", "Potency": "inconclusive: 5.01 µM [inhibitor, partial curve, poor fit]"}
{"smiles": "Cc1c(NC(=O)c2ccccc2F)cccc1-c1nc2cccnc2s1", "Potency": "inactive"}
{"smiles": "CC(C)CCN1CCCC2(C1)C(=NC1CCCCC1)NC(=O)N2c1cccnc1", "note": "(configuration not stated)", "Potency": "inconclusive: 12.6 µM [inhibitor, partial curve, poor fit]"}
{"smiles": "CC(=O)N1CCC2(CC1)CC(C(C)C)=NO2", "Potency": "inactive"}
{"smiles": "CC(=O)N1CCCc2cc(S(=O)(=O)N(C)CC(=O)Nc3ccc(Cl)cc3C)ccc21", "Potency": "inconclusive: 12.6 µM [inhibitor, single point]"}
{"smiles": "COC(=O)CNC(=O)N1CCCCC1c1nc(CCOc2ccc(F)cc2)no1", "note": "(configuration not stated)", "Potency": "inactive"}
{"smiles": "CN1C[C@@H](NC(=O)Nc2ccccc2)C[C@H]1c1nc(-c2ccc(F)cc2)no1", "Potency": "inactive"}
{"smiles": "NCc1ccccc1-c1cccc(O)c1", "Potency": "inconclusive: 11.2 µM [inhibitor, partial curve]"}
